# The whole screen tested about 52,000 compounds, of which about 4,300 (8.3%) were called active. Cut-off read from the data, not from the text of the source: active = survival mostly below about 52% (no sharp cut-off); inactive = mostly above about 56%. This is one part of the list.
# Tested on: DeltatarO mutant
# Experiment: growth inhibition of S. aureus wild type versus tarO mutant, primary screen, teichoic acid synthesis inhibitors, RN4220, OD600 (AID 463173)
# Conditions: OD600, 18 h, hits give low values, screened at 18.75 µg/mL (by protocol)
row,Structure (SMILES),survival
1,CCNc1nc(NC(C)CC)nc(ON=C(C)C)n1 (stereo not given),inactive: 99%
2,COc1ccc(C2=NS(=O)(=O)N(C)C(C(=O)Nc3cc(C)ccc3O)=C2)cc1OC,inactive: 62%
3,Cc1nc(N2C(=O)c3oc4ccccc4c(=O)c3C2c2ccccc2F)sc1C (stereo not given),inactive: 58%
4,O=C1CS/C(=N\N2CCOCC2)N1Cc1ccccc1,inactive: 84%
5,COc1cccc(N2CCN(S(=O)(=O)c3cc(Br)cc4c3N(C(=O)C3CC3)CC4)CC2)c1,inactive: 82%
6,COc1ccccc1C1C=C(c2ccc(F)cc2)Nc2nc(-c3ccc(Cl)cc3)nn21 (stereo not given),inactive: 60%
7,CCOc1ccc(CCNC(=O)CCc2c(C)nc3c4c(C)cc(C)nc4nn3c2C)cc1,inactive: 72%
8,COc1cccc(NC(=O)NCc2ccc3c(c2)CCN3C(=O)c2ccccc2)c1,active: 52%
9,Cc1cccc(C(=O)Nc2sc3c(c2C(=O)NCc2ccco2)CCCC3)c1,inactive: 83%
10,Cc1ccc2[nH]c(=O)c3cc(C(=O)N4CCN(c5ccccc5)CC4)sc3c2c1,inactive: 81%
11,Cc1cc(C)c(Cn2c3ccccc3c3cnn(CC(=O)NC4CCC(C)CC4)c(=O)c32)c(C)c1 (stereo not given),inactive: 71%
12,Cc1nc(-c2ccc(Cl)cc2)sc1CCNC(=O)C(=O)Nc1ccc(F)cc1F,inactive: 73%
13,CCCCN1C(=O)c2[nH]nc(-c3ccccc3O)c2C1c1cccc(OCc2ccccc2)c1 (stereo not given),active: 18%
14,O=C(Cn1c(=O)oc2cc(S(=O)(=O)N3CCCCC3)ccc21)Nc1cccc(Cl)c1,inactive: 81%
15,Cc1ccccc1NC(=O)c1ccc(F)c(S(=O)(=O)N(C)Cc2ccccc2)c1,inactive: 84%
16,CCc1ccc(NC(=O)c2cc(C(C)=O)n3ccccc23)cc1,inactive: 83%
17,CC(C)c1ccc(C2N3CC4(C)CN2CC(c2ccccc2)(C3)C4=O)cc1 (stereo not given),inactive: 80%
18,CCCc1nn2c(=O)cc(COC(=O)c3cccc(NC(=O)COc4ccc(F)cc4)c3)nc2s1,inactive: 99%
19,CCc1nn(-c2ccccc2)c2nc(-c3ccccc3OC)c3cc(OC)c(OC)cc3c12,inactive: 107%
20,CCOC(=O)c1scc(-c2ccccc2)c1S(=O)(=O)Nc1ccccc1F,inactive: 120%
21,Clc1cccc(N2CCN(c3ncnc4c3nc3n4CCCCC3)CC2)c1,active: 11%
22,CCOc1ccccc1CNS(=O)(=O)c1ccc2c(c1)CCCN2C(C)=O,inactive: 76%
23,O=C(Cn1ccn(-c2ccc(F)c(F)c2)c(=O)c1=O)Nc1ccccc1F,inactive: 65%

row,Structure (SMILES),survival
1,Cc1ccc(-c2nc3cc(C(C)C)ccc3o2)cc1NC(=O)c1cc2ccccc2o1,active: 19%
2,CCc1ccc(CNC(=O)c2sc3ncccc3c2-n2c(C)ccc2C)cc1,active: 0%
3,Cc1ccc(CN2CCc3nc(N4CCN(c5ncccn5)CC4)ncc3C2)cc1,inactive: 117%
4,COc1cccc(NC(=O)C(C#N)Cc2cccs2)c1 (stereo not given),inactive: 110%
5,Cc1ccc(C)n1-c1nnc(N2CCCC(C(=O)NCc3ccc(Cl)cc3)C2)s1 (stereo not given),inactive: 71%
6,Cc1ccc(OCC(=O)Nc2ccc(S(=O)(=O)Nc3cc(C)nc(C)n3)cc2)c(Br)c1,inactive: 97%
7,O=C(CCSc1nc(-c2ccco2)cc(C(F)(F)F)n1)Nc1cccc(O)c1,inactive: 122%
8,O=C(Nc1ccc2oc(-c3cccnc3)nc2c1)c1cccc(Br)c1,inactive: 62%
9,COc1cccc(NC(=O)CSc2nc3c(oc4ccccc43)c(=O)n2Cc2ccco2)c1,inactive: 65%
10,Cc1ccc(N(CC(=O)NCCc2ccc(Cl)cc2)S(=O)(=O)N(C)C)cc1,inactive: 101%
11,Cc1ccc(C(=O)N2CCC(C(=O)O)CC2)cc1,inactive: 90%
12,CCOC(=O)C1CCN(c2ncnc3c2c(-c2ccccc2)cn3-c2cccc(C)c2)CC1,inactive: 94%
13,Cc1oc2c(c(C)cc3oc(=O)c(CC(=O)NCCc4ccccc4F)c(C)c32)c1C,inactive: 69%
14,CCc1ccc(NC(=O)CN2CCN(Cc3ccccc3)S2(=O)=O)cc1,inactive: 68%
15,Cc1ccccc1-n1c(SCC(=O)Nc2ccc(Cl)cc2F)nnc1-c1cc2occc2n1C,inactive: 88%
16,Cc1cccc(NC(=O)CCCn2c(C)c3cnn(-c4ccccc4)c(=O)c3c2C)c1C,inactive: 71%
17,CCOCc1cn(CC(=O)c2ccc(OC(C)=O)c(OC(C)=O)c2)c(C)nc1=N,inactive: 87%
18,CCOc1ccc(-n2c(Cc3ccccc3)nnc2SCc2nc(-c3ccccc3OC)no2)cc1,inactive: 56%
19,COC(=O)c1cc2c(ccn2C)n1CC(=O)N(C1CCCCC1)C1CCCCC1,inactive: 82%
20,CN1CCN(C(CNC(=O)c2cccc(F)c2)c2ccc3c(c2)OCO3)CC1 (stereo not given),inactive: 80%
21,O=C(Nc1cccs1)Nc1cc(C(F)(F)F)ccc1Cl,active: 11%
22,Cc1ccc(Cl)cc1N1CCN(C(=O)c2cnc(N3CCOCC3)c3ccccc23)CC1,inactive: 113%
23,Cc1cc(C)c(NC(=O)C2CCN(c3nc4ccccc4[nH]3)CC2)c(C)c1,inactive: 102%

row,Structure (SMILES),survival
1,CC(C)CCNC(=O)CCCN1C(=O)c2ccccc2Sc2ncccc21,inactive: 69%
2,COc1cc(-c2noc(CN3CCN(c4ccccc4)CC3)n2)cc(OC)c1OC,inactive: 84%
3,O=C(O)CNCc1nc2ccccc2[nH]1,inactive: 95%
4,N[n+]1cnn(CC(=O)c2ccc(Cl)cc2)c1,inactive: 76%
5,Cc1cccc(NC(=O)C(=O)NCC(c2ccc3c(c2)OCO3)N2CCOCC2)c1C (stereo not given),inactive: 87%
6,CCOC(=O)c1ccccc1NC(=O)N1CCc2c(sc(C)c2CC)C1c1ccccc1 (stereo not given),inactive: 124%
7,COc1ccccc1-c1nc2c(c(SCc3cccc(Cl)c3)n1)Cc1c(CO)cnc(C)c1O2,inactive: 72%
8,Cc1cn2c(=O)cc(COC(=O)c3cccc(NC(=O)COc4ccccc4Cl)c3)nc2s1,inactive: 99%
9,COc1cc(OC)cc(C(=O)Oc2c(Sc3ccccc3)c(C)nn2C(C)(C)C)c1,active: 43%
10,CCc1ccc(C2c3c(-c4ccccc4O)n[nH]c3C(=O)N2Cc2ccncc2)cc1 (stereo not given),active: 22%
11,CCOc1ccc(/C=C/c2nc(C#N)c(N(C)C)o2)cc1,inactive: 102%
12,Cc1ccc(NC(=O)Cn2cc(S(=O)(=O)N3CCN(c4ccccc4F)CC3)c3ccccc3c2=O)cc1F,inactive: 85%
13,Cc1csc2nc(COc3ccc(NC(=O)COc4ccc(F)cc4)cc3)cc(=O)n12,inactive: 66%
14,COc1ccc(N2CCN(C(CNC(=O)c3ccc(C)cc3)c3ccc4c(c3)OCO4)CC2)cc1 (stereo not given),inactive: 95%
15,Oc1ccc(-c2csc(-c3ccccc3)n2)cc1O,inactive: 111%
16,Cc1cc2c(cc1NC(=O)c1ccc(C(C)(C)C)cc1)n(C)c(=O)c(=O)n2C,inactive: 84%
17,CC(C)c1ccc(CNc2nc(-c3ccco3)nn2S(=O)(=O)c2ccccc2)cc1,inactive: 84%
18,CCOc1ccccc1CNC(=O)c1nn(C)c2c1CS(=O)(=O)c1ccccc1-2,inactive: 101%
19,N#Cc1ccccc1NC(=O)CC1Nc2ccccc2NC1=O (stereo not given),inactive: 98%
20,CCc1cccc2c(=O)c(C(=O)N3CCCCC3)c[nH]c12,inactive: 96%
21,CN1CCN(C(=O)c2cnn(-c3cccc(F)c3)c2C2CCN(C(=O)OC(C)(C)C)CC2)CC1,inactive: 82%
22,Cc1ccc(C)c(CSc2c(C(C)C)cnc3c2c(=O)n(C)c(=O)n3C)c1,inactive: 104%
23,CCOc1nc(NCCN2CCOCC2)nc(NC(C)C)n1,inactive: 92%

row,Structure (SMILES),survival
1,O=C1CC(c2ccccc2)Cc2[nH]c(=O)c(-c3nc(-c4ccc(F)cc4)cs3)cc21 (stereo not given),inactive: 154%
2,CSc1ccc(NC(=O)C2CC(O)CN2C(=O)Nc2ccccc2)cc1 (stereo not given),inactive: 109%
3,O=C(CN1C(=O)COc2ccc(S(=O)(=O)N3CCCC3)cc21)N1CCN(c2ccccc2F)CC1,inactive: 89%
4,Cc1ccccc1-c1nc(CS(=O)CC(=O)NCCc2ccc(Cl)cc2)c(C)o1 (stereo not given),inactive: 112%
5,CC(C)Oc1ccc(CNC(=O)C2COc3ccccc3C2)cc1 (stereo not given),inactive: 58%
6,COc1ccc(-c2noc(-c3ccc(N4CCCCC4)c([N+](=O)[O-])c3)n2)cc1,active: 37%
7,CCOC(=O)c1cnc2ccc(OCC)cc2c1N1CCN(c2cccc(Cl)c2)CC1,active: 3%
8,O=C1CN(C(=O)C2CCCCC2)C(c2ccccc2)c2cc(F)ccc2N1 (stereo not given),inactive: 70%
9,CS(=O)(=O)N1CCN(CC(=O)NC2CCCCC2)CC1,inactive: 73%
10,Cc1ccc(-c2cc(C(=O)Oc3ccccc3)c3cccc(C)c3n2)cc1,inactive: 50%
11,O=C1CC(c2ccccc2)NC(=S)N1 (stereo not given),inactive: 68%
12,COC(=O)c1cc(S(=O)(=O)N2CCN(c3ccc(C)cc3C)CC2)cn1C,inactive: 66%
13,Cc1sc(-c2cc3ccccc3oc2=O)nc1-c1ccc(Cl)cc1,inactive: 93%
14,O=C(NCc1ccccc1)C(=O)NCC(c1ccco1)S(=O)(=O)c1ccccc1 (stereo not given),inactive: 76%
15,COc1ccc(N2CCN(C(CNC(=O)C(=O)NCc3ccc(F)cc3)c3cccnc3)CC2)cc1 (stereo not given),inactive: 59%
16,CCc1ccc(NC(=O)N(Cc2c[nH]c3ccccc23)C2CCCCCC2)cc1,inactive: 102%
17,CCCCN1C(=O)C(O)(c2c(C)[nH]c3ccccc23)c2cc(Br)ccc21 (stereo not given),active: 27%
18,Cc1cc2nn(-c3ccc(F)cc3)nc2cc1NC(=O)c1cc(Cl)ccc1Cl,inactive: 141%
19,Cc1cc(OCC(=O)NCC2(N(C)C)CCCCC2)cc(C)c1Cl,inactive: 91%
20,CCN1CCN(C(c2cccc(Cl)c2)c2c(O)cc(C)n(CCOC)c2=O)CC1 (stereo not given),inactive: 80%
21,Cc1ccc(CCNC(=O)CN2C(=O)COc3ccc(S(=O)(=O)N4CCC(C)CC4)cc32)cc1,inactive: 92%

# — PubChem BioAssay AID463173 (ICCB-Longwood Screening Facility, Harvard Medical School, 2010)
